According to the supplement of paper PMC4604168 (melanoma cell lines):
The list shows a part of the results. Single values are uncertain, as repeats are few or missing.

Tests used:
Experiment in all cases: cell count relative to DMSO control; melanoma cells; higher = more viable cells
Details in all cases: library dose: low library concentration; 72 h
WM115 = test system: WM115
WM1716 = test system: WM1716
WM1745 = test system: WM1745
WM3526 = test system: WM3526
WM3619 = test system: WM3619
WM451Lu = test system: WM451Lu
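Further: cell number obtained by counting DAPI-stained nuclei in high-throughput microscope images with image analysis software, screen run in 1,536-well plates.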

| Structure (SMILES) | cell count (WM115) | cell count (WM1716) | cell count (WM1745) | cell count (WM3526) | cell count (WM3619) | cell count (WM451Lu) |
| --- | --- | --- | --- | --- | --- | --- |
| Cn1cnc2c(F)c(Nc3ccc(Br)cc3Cl)c(C(=O)NOCCO)cc21 [selumetinib] + O=C(O)c1ccc(-c2c[nH]c3ncc(-c4ccccc4)cc23)cc1C1CCCC1 [GSK650394] (first compound 0.015 µM, partner dose 0.16 µM) | 87.7% | 118% | 113% | 76.1% | 93.1% | 110% |
| COc1cc([C@@H]2c3cc4c(cc3[C@@H](O[C@@H]3O[C@@H]5CO[C@@H](C)O[C@H]5[C@H](O)[C@H]3O)[C@H]3COC(=O)[C@H]23)OCO4)cc(OC)c1O [etoposide] + C[C@@H](Oc1cc(-c2cnn(C3CCNCC3)c2)cnc1N)c1c(Cl)ccc(F)c1Cl [Crizotinib] (first compound 0.02 µM, partner dose 0.2 µM) | 92.4% | 99.7% | 98.9% | 79.6% | 94% | 117% |
| COc1cc([C@@H]2c3cc4c(cc3[C@@H](O[C@@H]3O[C@@H]5CO[C@@H](C)O[C@H]5[C@H](O)[C@H]3O)[C@H]3COC(=O)[C@H]23)OCO4)cc(OC)c1O [etoposide] + CC1(C)CCC(c2ccc(Cl)cc2)=C(CN2CCN(c3ccc(C(=O)NS(=O)(=O)c4ccc(N[C@H](CCN5CCOCC5)CSc5ccccc5)c(S(=O)(=O)C(F)(F)F)c4)cc3)CC2)C1 [ABT263] (first compound 0.02 µM, partner dose 0.4 µM) | 81% | 76.5% | 11.6% | 88.1% | 91.3% | 84.2% |
| C[C@]1(O)C[C@@H](c2nc(-c3ccc4ccc(-c5ccccc5)nc4c3)c3c(N)nccn32)C1 + O=C(O)C(=O)Nc1sc2c(c1C(=O)O)CCNC2 [TCS401] (first compound 0.4 µM, partner dose 1.66667 µM) | 106% | 108% | 65.2% | 71.2% | 81.3% | 87.9% |
| CCN(CC)CCNC(=O)c1c(C)[nH]c(/C=C2\C(=O)Nc3ccc(F)cc32)c1C [sunitinib] + N#Cc1c(O)c2c(-c3ccc(-c4ccccc4O)cc3)csc2[nH]c1=O [A769662] (first compound 0.4 µM, partner dose 2 µM) | 106% | 134% | 84.2% | 102% | 103% | 111% |
| COc1cc([C@@H]2c3cc4c(cc3[C@@H](O[C@@H]3O[C@@H]5CO[C@@H](C)O[C@H]5[C@H](O)[C@H]3O)[C@H]3COC(=O)[C@H]23)OCO4)cc(OC)c1O [etoposide] + CC1(C)NC(=O)N(c2ccc([N+](=O)[O-])c(C(F)(F)F)c2)C1=O [nilutamide] (first compound 0.02 µM, partner dose 1 µM) | 89.1% | 91.9% | 95.2% | 103% | 89.3% | 101% |
| Cn1cnc2c(F)c(Nc3ccc(Br)cc3Cl)c(C(=O)NOCCO)cc21 [selumetinib] + COc1ccc(-c2ccc3c(N4CCOCC4)nc(N4C[C@@H](C)O[C@@H](C)C4)nc3n2)cc1CO [KU0063794] (first compound 0.015 µM, partner dose 0.02 µM) | 78.4% | 127% | 115% | 27.6% | 93.4% | 85.5% |
| CCN(CC)CCNC(=O)c1c(C)[nH]c(/C=C2\C(=O)Nc3ccc(F)cc32)c1C [sunitinib] + O=C(O)[C@@H]1[O][Sb](=[O])([O][Sb]2(=[O])[O][C@H]([C@H](O)CO)[C@H](O)[C@H](C(=O)O)[O]2)[O][C@H]([C@H](O)CO)[C@@H]1O [stibogluconate] (first compound 0.4 µM, partner dose 2 µM) | 99.8% | 134% | 85.2% | 89.6% | 99.5% | 111% |
| COc1cc([C@@H]2c3cc4c(cc3[C@@H](O[C@@H]3O[C@@H]5CO[C@@H](C)O[C@H]5[C@H](O)[C@H]3O)[C@H]3COC(=O)[C@H]23)OCO4)cc(OC)c1O [etoposide] + c1cc(-c2cnn3cc(-c4ccc(OCCN5CCCCC5)cc4)cnc23)ccn1 [Dorsomorphin] (first compound 0.02 µM, partner dose 0.4 µM) | 103% | 83.1% | 78.1% | 108% | 94% | 84% |
| Cn1cnc2c(F)c(Nc3ccc(Br)cc3Cl)c(C(=O)NOCCO)cc21 [selumetinib] + COCC[n+]1c2c(n(Cc3cnccn3)c1C)C(=O)c1ccccc1C2=O [YM155] (first compound 0.015 µM, partner dose 0.0004 µM) | 91.5% | 94.9% | 108% | 82.8% | 79.3% | 77.7% |
| COc1cc([C@@H]2c3cc4c(cc3[C@@H](O[C@@H]3O[C@@H]5CO[C@@H](C)O[C@H]5[C@H](O)[C@H]3O)[C@H]3COC(=O)[C@H]23)OCO4)cc(OC)c1O [etoposide] + Cn1c(Nc2ccc(C(F)(F)F)cc2)nc2cc(Oc3ccnc(-c4ncc(C(F)(F)F)[nH]4)c3)ccc21 [CHIR265] (first compound 0.02 µM, partner dose 0.08 µM) | 56.3% | 71.4% | 58.5% | 54.8% | 73.3% | 84.8% |
| COc1cc([C@@H]2c3cc4c(cc3[C@@H](O[C@@H]3O[C@@H]5CO[C@@H](C)O[C@H]5[C@H](O)[C@H]3O)[C@H]3COC(=O)[C@H]23)OCO4)cc(OC)c1O [etoposide] + O=C(Nc1cccc(Cl)c1)Nc1ncc(CCNc2ncnc3ccsc23)s1 [SNS314] (first compound 0.02 µM, partner dose 0.0008 µM) | 58.4% | 66.6% | 96.1% | 76.4% | 88.5% | 123% |
| CCN(CC)CCNC(=O)c1c(C)[nH]c(/C=C2\C(=O)Nc3ccc(F)cc32)c1C [sunitinib] + C[C@@H](Oc1cc(-c2cnn(C3CCNCC3)c2)cnc1N)c1c(Cl)ccc(F)c1Cl [Crizotinib] (first compound 0.4 µM, partner dose 0.2 µM) | 116% | 132% | 81.7% | 84.8% | 163% | 90.5% |
| C[C@]1(O)C[C@@H](c2nc(-c3ccc4ccc(-c5ccccc5)nc4c3)c3c(N)nccn32)C1 + COc1ccc(Cl)c(Nc2nc3ccccc3nc2NS(=O)(=O)c2cccc(NC(=O)C(C)(C)N)c2)c1 [XL147] (first compound 0.4 µM, partner dose 0.8 µM) | 100% | 112% | 79% | 77% | 90.8% | 112% |
| COc1cc([C@@H]2c3cc4c(cc3[C@@H](O[C@@H]3O[C@@H]5CO[C@@H](C)O[C@H]5[C@H](O)[C@H]3O)[C@H]3COC(=O)[C@H]23)OCO4)cc(OC)c1O [etoposide] + CCCCCCCCCCCCCCCCCCOP(=O)([O-])OC1CC[N+](C)(C)CC1 [Perifosine] (first compound 0.02 µM, partner dose 0.4 µM) | 95.4% | 95.8% | 118% | 120% | 84.1% | 88.5% |
| C[C@]1(O)C[C@@H](c2nc(-c3ccc4ccc(-c5ccccc5)nc4c3)c3c(N)nccn32)C1 + O=c1cc(-c2cccc3c2Sc2ccccc2S3)oc(N2CCOCC2)c1 [KU55933] (first compound 0.4 µM, partner dose 1 µM) | 103% | 119% | 91.7% | 85.8% | 94.8% | 129% |
| Cn1cnc2c(F)c(Nc3ccc(Br)cc3Cl)c(C(=O)NOCCO)cc21 [selumetinib] + CN1CCN(c2ccc3nc(-c4c(N)c5c(F)cccc5[nH]c4=O)[nH]c3c2)CC1 [Dovitinib] (first compound 0.015 µM, partner dose 0.1 µM) | 91% | 118% | 84.6% | 69.8% | 94.5% | 97.9% |
| C[C@]1(O)C[C@@H](c2nc(-c3ccc4ccc(-c5ccccc5)nc4c3)c3c(N)nccn32)C1 + O=C1NC(=O)/C(=C/c2ccc(-c3ccc(F)cc3O)o2)S1 [AS252424] (first compound 0.4 µM, partner dose 1 µM) | 97% | 113% | 79.8% | 82% | 98.5% | 106% |
| COc1cc([C@@H]2c3cc4c(cc3[C@@H](O[C@@H]3O[C@@H]5CO[C@@H](C)O[C@H]5[C@H](O)[C@H]3O)[C@H]3COC(=O)[C@H]23)OCO4)cc(OC)c1O [etoposide] + Nc1ccn([C@@H]2O[C@H](CO)[C@@H](O)C2(F)F)c(=O)n1 [gemcitabine] (first compound 0.02 µM, partner dose 0.0004 µM) | 83.5% | 88.6% | 86.5% | 83% | 84% | 77.3% |
| Cn1cnc2c(F)c(Nc3ccc(Br)cc3Cl)c(C(=O)NOCCO)cc21 [selumetinib] + C[C@]1(c2nc3c(C(N)=O)cccc3[nH]2)CCCN1 [Veliparib] (first compound 0.015 µM, partner dose 1.4 µM) | 79.9% | 102% | 90.4% | 53.5% | 82.2% | 130% |
| COc1cc([C@@H]2c3cc4c(cc3[C@@H](O[C@@H]3O[C@@H]5CO[C@@H](C)O[C@H]5[C@H](O)[C@H]3O)[C@H]3COC(=O)[C@H]23)OCO4)cc(OC)c1O [etoposide] + CCCCCCCCCCCC1=C(O)C(=O)C=C(O)C1=O [Embelin] (first compound 0.02 µM, partner dose 1.2 µM) | 73.1% | 96.8% | 88.6% | 108% | 91.6% | 109% |
| CCN(CC)CCNC(=O)c1c(C)[nH]c(/C=C2\C(=O)Nc3ccc(F)cc32)c1C [sunitinib] + COc1ccc(Cl)c(Nc2nc3ccccc3nc2NS(=O)(=O)c2cccc(NC(=O)C(C)(C)N)c2)c1 [XL147] (first compound 0.4 µM, partner dose 0.8 µM) | 115% | 123% | 74% | 82.3% | 102% | 95.9% |
